Assay results reported in the supplement of paper PMC7125110.
± gives the standard error. Variants at the floor of the assay are shown more often than the library holds them.

B1: glmS ribozyme (parent)
chain: AUAAAAGCGCCAGAACUACAGAAAUGUAGUUGACGAGGAGGAGGUUUAUCGAAUUUUCGGCGGAUGCCUCCAAA

How the values were obtained:
Conditions in all cases: with glucosamine-6-phosphate
glucosamine-6-phosphate [1] = variants of: B1; assay: self-cleavage kobs at 40 uM GlcN6P; higher = faster cleavage; RNA array
How it was run: (§1)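 Weighted Michaelis–Menten fits across concentrations supplied kcat and KM, based on kobs from one- or two-exponential decay fits to normalised per-tile medians. The data came from barcoded ribozyme variants transcribed in situ by E. coli RNA polymerase on sequenced MiSeq chips and tracked at 37 °C by a hybridised Cy3 probe. Glucosamine-6-phosphate (40 μM to 10 mM) in HEPES/KCl/Mg(OAc)2 buffer was flowed in.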

glucosamine-6-phosphate [2] = variants of: B1; assay: self-cleavage kobs at 640 uM GlcN6P; higher = faster cleavage; RNA array
How it was run: as §1

glucosamine-6-phosphate [3] = variants of: B1; assay: self-cleavage kobs at 160 uM GlcN6P; higher = faster cleavage; RNA array
How it was run: as §1

glucosamine-6-phosphate [4] = variants of: B1; assay: self-cleavage kobs at 2500 uM GlcN6P; higher = faster cleavage; RNA array
How it was run: as §1

glucosamine-6-phosphate [5] = variants of: B1; assay: self-cleavage kobs at 10000 uM GlcN6P; higher = faster cleavage; RNA array
How it was run: as §1

Variant	self-cleavage kobs at 40 uM GlcN6P (glucosamine-6-phosphate [1]) [s⁻¹]	self-cleavage kobs at 640 uM GlcN6P (glucosamine-6-phosphate [2]) [s⁻¹]	self-cleavage kobs at 160 uM GlcN6P (glucosamine-6-phosphate [3]) [s⁻¹]	self-cleavage kobs at 2500 uM GlcN6P (glucosamine-6-phosphate [4]) [s⁻¹]	self-cleavage kobs at 10000 uM GlcN6P (glucosamine-6-phosphate [5]) [s⁻¹]
G40A G63U	< 1e-05	< 1e-05	< 1e-05	< 1e-05	< 1e-05
G59U U65G C67U	< 1e-05	–	–	–	–
C58U G59C	< 1e-05	–	–	–	–
G7A C16G A48U G60C C70A	–	< 1e-05	–	< 1e-05	–
U49C A52C	< 1e-05	–	< 1e-05	< 1e-05	–
A39U A42C C50G C70G	< 1e-05	–	–	–	–
G62U C71G	< 1e-05	–	–	–	< 1e-05
G59U C61G U65A U69G	< 1e-05	–	–	–	–
G41A C68A	< 1e-05	< 1e-05	< 1e-05	< 1e-05	< 1e-05
G41U C58A C67U	< 1e-05	–	–	–	< 1e-05
U45G U69A	0.000333 ± 8.4e-05	–	–	0.000589 ± 0.00025	0.000362 ± 7.9e-05
G43U C50A	< 1e-05	< 1e-05	< 1e-05	–	< 1e-05
G40A G51A C58G G62U	< 1e-05	–	–	–	–
A6C G9C U55C	–	< 1e-05	< 1e-05	< 1e-05	–
A48G C71A	< 1e-05	–	–	–	–
U54A C70G	6.49e-05 ± 8.1e-06	0.00033 ± 5.7e-05	6.78e-05 ± 1e-05	0.000176 ± 2.2e-05	0.000131 ± 1.5e-05
G63A	< 1e-05	< 1e-05	–	–	< 1e-05
G7U A48G	–	< 1e-05	–	–	–
U46A U47C	5.61e-05 ± 1.2e-05	–	–	–	–
U46A G63A	< 1e-05	–	–	–	< 1e-05
A42U U49G A53C A64G	< 1e-05	–	–	–	–
G40A G60U	< 1e-05	< 1e-05	< 1e-05	< 1e-05	< 1e-05
A6G A33C C34A G38A G43C	–	< 1e-05	–	–	–
G59C G60U G62U	< 1e-05	< 1e-05	–	< 1e-05	< 1e-05
G44C G51U C67G U69A C71G	< 1e-05	–	–	–	–

Variant	self-cleavage kobs at 40 uM GlcN6P (glucosamine-6-phosphate [1]) [s⁻¹]	self-cleavage kobs at 640 uM GlcN6P (glucosamine-6-phosphate [2]) [s⁻¹]	self-cleavage kobs at 160 uM GlcN6P (glucosamine-6-phosphate [3]) [s⁻¹]	self-cleavage kobs at 2500 uM GlcN6P (glucosamine-6-phosphate [4]) [s⁻¹]	self-cleavage kobs at 10000 uM GlcN6P (glucosamine-6-phosphate [5]) [s⁻¹]
G7A C11A A14C	–	< 1e-05	–	< 1e-05	< 1e-05
C8A A33G G44U C50A G51U	–	< 1e-05	–	< 1e-05	–
G59C C71U	< 1e-05	< 1e-05	< 1e-05	< 1e-05	< 1e-05
A42G A52C	< 1e-05	–	–	–	–
U54G G63C U65C	< 1e-05	< 1e-05	–	–	–
G43C A48U	< 1e-05	< 1e-05	–	< 1e-05	< 1e-05
A6C G38C U47C	–	< 1e-05	–	< 1e-05	–
G38C U56C	< 1e-05	–	< 1e-05	< 1e-05	< 1e-05
G43U U45C U46A U55C	< 1e-05	–	–	–	–
A6C A39G U57G	–	< 1e-05	–	< 1e-05	–
U49G A64C	< 1e-05	< 1e-05	–	< 1e-05	–
G7C C11U G59C	–	< 1e-05	< 1e-05	< 1e-05	< 1e-05
A6C G7C A36C U55C C58A	–	< 1e-05	–	–	–
G7U U30A G59A	–	< 1e-05	–	< 1e-05	–
C50U U65C	< 1e-05	< 1e-05	–	–	< 1e-05
U49A C68A	< 1e-05	–	–	–	< 1e-05
G51U G59C	< 1e-05	–	–	< 1e-05	< 1e-05
U56C G59A G63U C67G	< 1e-05	< 1e-05	–	–	< 1e-05
U47A U54G	0.0005 ± 0.00016	0.0103 ± 0.0034	–	0.00345 ± 0.0016	–
G40U U49C	< 1e-05	–	–	–	–
A39G G60A	< 1e-05	–	–	–	–
A42U G63U	< 1e-05	–	< 1e-05	< 1e-05	< 1e-05
A52U C58U	< 1e-05	< 1e-05	< 1e-05	< 1e-05	< 1e-05
G44A U57A	< 1e-05	< 1e-05	–	< 1e-05	–
A6U C10A G51U	–	< 1e-05	–	< 1e-05	–

Variant	self-cleavage kobs at 40 uM GlcN6P (glucosamine-6-phosphate [1]) [s⁻¹]	self-cleavage kobs at 640 uM GlcN6P (glucosamine-6-phosphate [2]) [s⁻¹]	self-cleavage kobs at 160 uM GlcN6P (glucosamine-6-phosphate [3]) [s⁻¹]	self-cleavage kobs at 2500 uM GlcN6P (glucosamine-6-phosphate [4]) [s⁻¹]	self-cleavage kobs at 10000 uM GlcN6P (glucosamine-6-phosphate [5]) [s⁻¹]
G59C C67G C70G	< 1e-05	–	–	–	–
G44U U65A	< 1e-05	–	–	–	–
A48U C61G	< 1e-05	< 1e-05	< 1e-05	< 1e-05	< 1e-05
G7A C11A A39G U45C	–	< 1e-05	–	–	–
G7A G32U A39U U56A	–	< 1e-05	–	< 1e-05	–
G44C U54A U57A U65G U69G	< 1e-05	–	–	–	< 1e-05
A64U G66U	< 1e-05	–	–	–	–
C50A G60U C68G	< 1e-05	–	–	–	–
G41A A64C	< 1e-05	< 1e-05	< 1e-05	< 1e-05	< 1e-05
A6U C10G A39U G60C C68G	–	< 1e-05	–	–	–
G41U A52U A53C G60C	< 1e-05	–	–	–	–
U54A U56G	0.000226 ± 4.9e-05	0.00363 ± 0.00057	0.000857 ± 0.00017	0.00548 ± 0.00089	0.0131 ± 0.0038
A6G U55G	–	0.000133 ± 3.4e-05	–	0.000299 ± 5.2e-05	0.000473 ± 7.8e-05
G40A C58U	< 1e-05	–	–	–	–
A6G G7U G35U	–	< 1e-05	–	–	–
G63U A64U	< 1e-05	< 1e-05	< 1e-05	< 1e-05	–
U47A A53C	0.000173 ± 2.9e-05	0.00103 ± 0.00018	0.000506 ± 7.8e-05	0.00465 ± 0.001	0.00663 ± 0.0016
A42G G51A A52U	< 1e-05	–	–	< 1e-05	–
U46A U69A	< 1e-05	–	–	–	–
G62U G63A	< 1e-05	< 1e-05	< 1e-05	< 1e-05	< 1e-05
A6U A33C G41A G63C	–	< 1e-05	< 1e-05	< 1e-05	–
U45C C68A	< 1e-05	–	–	–	–
G41C G43A	< 1e-05	< 1e-05	< 1e-05	–	< 1e-05
A42U C71U	< 1e-05	4.75e-05 ± 6.4e-06	–	0.000122 ± 1.6e-05	0.000129 ± 1.4e-05
A6G A15G G32C	–	< 1e-05	–	< 1e-05	–

Variant	self-cleavage kobs at 40 uM GlcN6P (glucosamine-6-phosphate [1]) [s⁻¹]	self-cleavage kobs at 640 uM GlcN6P (glucosamine-6-phosphate [2]) [s⁻¹]	self-cleavage kobs at 160 uM GlcN6P (glucosamine-6-phosphate [3]) [s⁻¹]	self-cleavage kobs at 2500 uM GlcN6P (glucosamine-6-phosphate [4]) [s⁻¹]	self-cleavage kobs at 10000 uM GlcN6P (glucosamine-6-phosphate [5]) [s⁻¹]
U46C G51A	< 1e-05	< 1e-05	< 1e-05	< 1e-05	< 1e-05
A42G C67U C68A C70A	< 1e-05	–	–	–	–
U49C C71U	< 1e-05	–	–	–	< 1e-05
G41A G51A	< 1e-05	< 1e-05	< 1e-05	< 1e-05	< 1e-05
A53G C61G	< 1e-05	–	–	–	–
A6C A12G C68G C70G	–	< 1e-05	< 1e-05	< 1e-05	–
A6G U46A U54C	–	< 1e-05	< 1e-05	–	–
A48C A53U	< 1e-05	4.84e-05 ± 1.1e-05	–	0.000131 ± 2e-05	0.000191 ± 3e-05
A42G U55C	0.000832 ± 0.00014	0.0147 ± 0.0051	0.00147 ± 0.00063	0.0354 ± 0.016	0.0147 ± 0.0029
A48G A64G	< 1e-05	–	–	–	–
G38U G43U	< 1e-05	< 1e-05	< 1e-05	< 1e-05	< 1e-05
A6C C8A G40C U56C G66C C68A	–	< 1e-05	< 1e-05	–	–
A48C C50U G63A	< 1e-05	–	–	–	–
C50A G62A	< 1e-05	< 1e-05	–	–	–
U55C G62C	< 1e-05	< 1e-05	–	–	< 1e-05
A6G A14G U49A	–	< 1e-05	< 1e-05	< 1e-05	–
A6U G7C U45G	–	< 1e-05	–	< 1e-05	–
C58U G62C U65G	< 1e-05	–	–	–	–
A39U U45G	0.000146 ± 2e-05	0.00165 ± 0.00028	0.000471 ± 8.8e-05	0.00481 ± 0.00079	0.00711 ± 0.00075
G7U A12G A48U G63U	–	< 1e-05	–	–	–
A6U U46A	–	< 1e-05	< 1e-05	–	–
G38A U45C	< 1e-05	< 1e-05	< 1e-05	< 1e-05	< 1e-05
A6G A14G C67G C71A	–	< 1e-05	–	–	–
A6U C61U G63U	–	< 1e-05	–	–	–
